Measurements reported in publication PMC5062570 (Nature Communications, 2016).
Where “and” joins values, the source holds several entries; their conditions need not be identical. Identical values can stand only once.

Legend:
[1] = target: T1, PF-7802-labelled proteins in ARPE-19 cells (Homo sapiens, UniProt O14773); conditions: for Median SILAC Ratio (Heavy/Light): TPP1 Tripeptidyl-peptidase 1 (O14773)
T1 sequence (O14773 196-563): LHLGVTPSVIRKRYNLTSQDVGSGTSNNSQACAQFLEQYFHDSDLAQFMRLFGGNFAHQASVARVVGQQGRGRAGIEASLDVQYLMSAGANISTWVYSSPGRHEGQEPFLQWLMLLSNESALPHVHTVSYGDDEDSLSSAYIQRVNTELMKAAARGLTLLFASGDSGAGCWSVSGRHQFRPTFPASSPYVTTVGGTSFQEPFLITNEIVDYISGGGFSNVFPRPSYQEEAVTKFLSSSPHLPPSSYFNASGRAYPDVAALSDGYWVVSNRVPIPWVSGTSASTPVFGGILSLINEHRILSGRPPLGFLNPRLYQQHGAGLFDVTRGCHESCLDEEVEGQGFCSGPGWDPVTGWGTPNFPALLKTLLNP

[2] = target: T2, PF-7802-labelled proteins in ARPE-19 cells (Homo sapiens, UniProt P11166); conditions: for Median SILAC Ratio (Heavy/Light): SLC2A1 Solute carrier family 2, facilitated glucose transporter member 1 (P11166)
T2 sequence (P11166 1-492): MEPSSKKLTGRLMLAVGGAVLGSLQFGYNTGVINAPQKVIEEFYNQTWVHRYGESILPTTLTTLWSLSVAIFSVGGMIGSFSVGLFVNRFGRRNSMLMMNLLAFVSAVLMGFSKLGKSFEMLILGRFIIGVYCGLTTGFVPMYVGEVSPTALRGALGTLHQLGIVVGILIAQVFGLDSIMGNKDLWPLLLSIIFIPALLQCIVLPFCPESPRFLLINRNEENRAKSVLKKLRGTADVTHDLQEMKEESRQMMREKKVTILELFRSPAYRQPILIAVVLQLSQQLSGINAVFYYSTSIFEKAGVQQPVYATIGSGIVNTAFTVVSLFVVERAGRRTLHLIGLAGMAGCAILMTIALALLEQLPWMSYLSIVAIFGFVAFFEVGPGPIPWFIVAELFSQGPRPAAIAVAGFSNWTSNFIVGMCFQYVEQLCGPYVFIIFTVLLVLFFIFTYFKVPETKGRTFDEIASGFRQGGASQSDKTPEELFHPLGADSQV

[3] = target: PF-7802-labelled proteins in ARPE-19 cells (Homo sapiens, UniProt P11279); conditions: protein LAMP1 Lysosome-associated membrane glycoprotein 1 (P11279); replicates in separate columns
[4] = target: PF-7802-labelled proteins in ARPE-19 cells (Homo sapiens, UniProt P13667); conditions: protein PDIA4 Protein disulfide-isomerase A4 (P13667); replicates in separate columns
[5] = target: PF-7802-labelled proteins in ARPE-19 cells (Homo sapiens, UniProt P22695); conditions: UQCRC2 Cytochrome b-c1 complex subunit 2, mitochondrial (P22695)
[6] = target: T3, PF-7802-labelled proteins in ARPE-19 cells (Homo sapiens, UniProt P24752); conditions: for Median SILAC Ratio (Heavy/Light): protein ACAT1 Acetyl-CoA acetyltransferase, mitochondrial (P24752)
T3 sequence (P24752 34-427): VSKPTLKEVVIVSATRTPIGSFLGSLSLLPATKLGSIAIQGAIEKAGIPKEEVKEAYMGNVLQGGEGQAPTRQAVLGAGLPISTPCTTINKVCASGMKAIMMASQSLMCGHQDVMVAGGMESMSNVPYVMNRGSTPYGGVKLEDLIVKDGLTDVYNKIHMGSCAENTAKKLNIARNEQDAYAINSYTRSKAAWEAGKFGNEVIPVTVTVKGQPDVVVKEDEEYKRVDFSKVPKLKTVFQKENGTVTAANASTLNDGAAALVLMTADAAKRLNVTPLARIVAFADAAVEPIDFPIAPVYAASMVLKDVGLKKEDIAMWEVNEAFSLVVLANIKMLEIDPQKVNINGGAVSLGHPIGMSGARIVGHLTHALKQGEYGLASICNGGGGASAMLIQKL

[7] = target: PF-7802-labelled proteins in ARPE-19 cells (Homo sapiens, UniProt P30044); conditions: protein PRDX5 Peroxiredoxin-5, mitochondrial, P30044
[8] = target: PF-7802-labelled proteins in ARPE-19 cells (Homo sapiens, UniProt P48047); conditions: protein ATP5O ATP synthase subunit O, mitochondrial (P48047)
[9] = target: PF-7802-labelled proteins in ARPE-19 cells (Homo sapiens, UniProt P60174); conditions: TPI1 Triosephosphate isomerase (P60174)
[10] = target: PF-7802-labelled proteins in ARPE-19 cells (Homo sapiens, UniProt Q08170); conditions: SRSF4 Serine/arginine-rich splicing factor 4 (Q08170)
[11] = target: PF-7802-labelled proteins in ARPE-19 cells (Homo sapiens, UniProt Q53GQ0); conditions: protein HSD17B12 Estradiol 17-beta-dehydrogenase 12 (Q53GQ0); one column per replicate
[12] = target: PF-7802-labelled proteins in ARPE-19 cells (Homo sapiens, UniProt Q92804); conditions: TAF15 TATA-binding protein-associated factor 2N (Q92804)
[13] = target: PF-7802-labelled proteins in ARPE-19 cells (Homo sapiens, UniProt Q99714); conditions: protein HSD17B10 3-hydroxyacyl-CoA dehydrogenase type-2 (Q99714); one column per replicate
[14] = target: PF-7802-labelled proteins in ARPE-19 cells (Homo sapiens, UniProt Q9Y265); conditions: protein RUVBL1 RuvB-like 1, Q9Y265
UniProt Q9Y265, sequence (Q9Y265 whole entry): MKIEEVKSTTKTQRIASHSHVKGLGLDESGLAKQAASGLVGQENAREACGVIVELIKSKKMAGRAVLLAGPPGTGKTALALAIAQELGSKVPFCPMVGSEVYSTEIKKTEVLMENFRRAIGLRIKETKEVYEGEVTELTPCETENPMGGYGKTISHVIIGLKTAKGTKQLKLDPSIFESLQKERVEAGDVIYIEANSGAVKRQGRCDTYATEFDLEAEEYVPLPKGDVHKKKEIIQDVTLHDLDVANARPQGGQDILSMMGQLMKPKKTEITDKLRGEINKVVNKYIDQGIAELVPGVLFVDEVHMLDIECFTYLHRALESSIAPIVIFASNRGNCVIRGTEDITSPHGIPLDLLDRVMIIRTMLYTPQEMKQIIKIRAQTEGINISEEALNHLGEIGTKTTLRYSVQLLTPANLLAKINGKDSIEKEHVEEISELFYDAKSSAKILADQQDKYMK

UniProt P60174, sequence (P60174 whole entry): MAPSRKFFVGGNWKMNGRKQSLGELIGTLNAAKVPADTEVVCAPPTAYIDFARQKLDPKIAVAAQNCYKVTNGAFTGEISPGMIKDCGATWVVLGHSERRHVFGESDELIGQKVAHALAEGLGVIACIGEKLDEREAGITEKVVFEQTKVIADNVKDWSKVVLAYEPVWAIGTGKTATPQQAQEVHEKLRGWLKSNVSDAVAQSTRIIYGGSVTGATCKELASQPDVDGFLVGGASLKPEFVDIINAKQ
UniProt Q92804, sequence (Q92804 whole entry): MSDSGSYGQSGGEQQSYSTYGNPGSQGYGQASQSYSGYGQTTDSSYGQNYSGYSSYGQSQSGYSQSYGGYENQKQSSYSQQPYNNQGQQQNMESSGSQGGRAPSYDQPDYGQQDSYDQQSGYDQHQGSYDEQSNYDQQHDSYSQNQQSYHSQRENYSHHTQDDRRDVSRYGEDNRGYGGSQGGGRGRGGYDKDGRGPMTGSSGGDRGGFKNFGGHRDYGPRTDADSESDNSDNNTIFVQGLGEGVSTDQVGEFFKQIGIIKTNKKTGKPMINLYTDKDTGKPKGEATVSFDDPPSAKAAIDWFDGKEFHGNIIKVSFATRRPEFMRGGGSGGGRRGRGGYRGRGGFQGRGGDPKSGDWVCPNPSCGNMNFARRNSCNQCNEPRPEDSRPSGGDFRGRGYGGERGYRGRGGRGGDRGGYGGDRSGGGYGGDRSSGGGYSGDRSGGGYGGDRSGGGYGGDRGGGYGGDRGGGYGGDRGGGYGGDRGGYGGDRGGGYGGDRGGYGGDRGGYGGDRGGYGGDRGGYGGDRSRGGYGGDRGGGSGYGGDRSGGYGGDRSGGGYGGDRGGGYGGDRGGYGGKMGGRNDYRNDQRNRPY
UniProt Q53GQ0, sequence (Q53GQ0 whole entry): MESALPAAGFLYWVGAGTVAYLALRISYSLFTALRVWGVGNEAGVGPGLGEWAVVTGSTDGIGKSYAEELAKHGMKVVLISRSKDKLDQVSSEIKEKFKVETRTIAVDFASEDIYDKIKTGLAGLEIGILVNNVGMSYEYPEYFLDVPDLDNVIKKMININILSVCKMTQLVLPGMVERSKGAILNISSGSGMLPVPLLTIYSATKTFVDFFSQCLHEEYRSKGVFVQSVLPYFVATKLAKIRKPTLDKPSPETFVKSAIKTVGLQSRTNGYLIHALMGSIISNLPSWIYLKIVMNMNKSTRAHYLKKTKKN
UniProt Q99714, sequence (Q99714 whole entry): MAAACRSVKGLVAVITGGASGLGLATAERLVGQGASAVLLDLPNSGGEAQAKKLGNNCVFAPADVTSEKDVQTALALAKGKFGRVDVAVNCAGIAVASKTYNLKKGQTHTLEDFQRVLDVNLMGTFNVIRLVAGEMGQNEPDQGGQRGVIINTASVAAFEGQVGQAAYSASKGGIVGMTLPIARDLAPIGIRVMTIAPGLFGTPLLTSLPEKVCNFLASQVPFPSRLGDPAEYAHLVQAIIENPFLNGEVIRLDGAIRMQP
UniProt Q08170, sequence (Q08170 whole entry): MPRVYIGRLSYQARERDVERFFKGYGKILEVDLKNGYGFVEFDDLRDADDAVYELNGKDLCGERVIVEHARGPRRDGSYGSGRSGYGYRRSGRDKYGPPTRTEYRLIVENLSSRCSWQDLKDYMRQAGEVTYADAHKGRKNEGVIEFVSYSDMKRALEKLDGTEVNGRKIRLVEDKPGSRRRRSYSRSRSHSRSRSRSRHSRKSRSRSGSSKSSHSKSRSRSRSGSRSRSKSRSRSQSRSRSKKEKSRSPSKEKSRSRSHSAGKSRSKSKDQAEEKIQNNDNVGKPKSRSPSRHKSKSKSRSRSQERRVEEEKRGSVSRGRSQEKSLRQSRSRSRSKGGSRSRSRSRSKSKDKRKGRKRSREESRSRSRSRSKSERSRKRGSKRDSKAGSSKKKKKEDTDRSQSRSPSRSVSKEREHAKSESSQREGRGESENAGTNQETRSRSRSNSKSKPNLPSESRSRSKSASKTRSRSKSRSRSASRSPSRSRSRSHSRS

Structure (SMILES)	SILAC ratio (DMSO/CP-108671) ([1]; O14773 TPP1 Tripeptidyl-peptidase 1)	Median SILAC Ratio (Heavy/Light) [1]	SILAC ratio (DMSO/CP-108671) ([2]; P11166 SLC2A1 Solute carrier family 2, facilitated glucose transporter member 1)	Median SILAC Ratio (Heavy/Light) [2]	Median SILAC Ratio (Heavy/Light) [3]	Median SILAC Ratio (Heavy/Light) [4]	Median SILAC Ratio (Heavy/Light) [5]	SILAC ratio (DMSO/CP-108671) ([6]; P24752 ACAT1 Acetyl-CoA acetyltransferase, mitochondrial)	Median SILAC Ratio (Heavy/Light) [6]	Median SILAC Ratio (Heavy/Light) [7]	Median SILAC Ratio (Heavy/Light) [8]	Median SILAC Ratio (Heavy/Light) [9]	Median SILAC Ratio (Heavy/Light) [10]	Median SILAC Ratio (Heavy/Light) [11]	Median SILAC Ratio (Heavy/Light) [12]	Median SILAC Ratio (Heavy/Light) [13]	Median SILAC Ratio (Heavy/Light) [14]
CNC1CCN(C(=O)C[C@@H](Cc2ccccc2)C(=O)N[C@@H](CSC)C(=O)N[C@@H](CC2CCCCC2)[C@@H](O)C(=O)OC(C)C)CC1 [CP-108671, reference compound]	0.88	1.135	0.87	1.156	1.326	1.07	1.123	1.04	0.9603	1.141	0.9626	0.3243	0.63	0.8548	0.4361	1.368	1.491
Cc1cc([C@H]2C[C@H]3[C@@H](C)SC(N)=N[C@@]3(c3ccc(F)cc3F)CO2)on1 [PF-9283]	–	1.274 and 1.656 and 1.755	–	1.381 and 2.28 and 2.213	1.473	1.154	1.402 and 2.53	–	1.113	1.372	1.211 and 0.9659	1.734 and 1.507 and 1.332	0.633	2.536 and 1.387	0.8251 and 1.173	2.093	1.565
